Measured values published in PMC6919601, “Identification of Plasmodium dipeptidyl aminopeptidase allosteric inhibitors by high throughput screening” (PLoS ONE, 2019).
The campaign covered roughly 110,000 compounds. About 230 (0.21%) showed an effect of 50% or more. The list shows a part of the results.
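Note: 30 min substrate incubation versus DMSO and 10 µM JCP410 controls.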

Each molecule was assayed against DPAP1 (Plasmodium falciparum, UniProt Q8IIJ9) (assay: primary screen, percent inhibition; read by cleavage of a fluorogenic dipeptide substrate; higher = more effect of the substance).
Sequence of DPAP1 (Q8IIJ9 whole entry, looked up): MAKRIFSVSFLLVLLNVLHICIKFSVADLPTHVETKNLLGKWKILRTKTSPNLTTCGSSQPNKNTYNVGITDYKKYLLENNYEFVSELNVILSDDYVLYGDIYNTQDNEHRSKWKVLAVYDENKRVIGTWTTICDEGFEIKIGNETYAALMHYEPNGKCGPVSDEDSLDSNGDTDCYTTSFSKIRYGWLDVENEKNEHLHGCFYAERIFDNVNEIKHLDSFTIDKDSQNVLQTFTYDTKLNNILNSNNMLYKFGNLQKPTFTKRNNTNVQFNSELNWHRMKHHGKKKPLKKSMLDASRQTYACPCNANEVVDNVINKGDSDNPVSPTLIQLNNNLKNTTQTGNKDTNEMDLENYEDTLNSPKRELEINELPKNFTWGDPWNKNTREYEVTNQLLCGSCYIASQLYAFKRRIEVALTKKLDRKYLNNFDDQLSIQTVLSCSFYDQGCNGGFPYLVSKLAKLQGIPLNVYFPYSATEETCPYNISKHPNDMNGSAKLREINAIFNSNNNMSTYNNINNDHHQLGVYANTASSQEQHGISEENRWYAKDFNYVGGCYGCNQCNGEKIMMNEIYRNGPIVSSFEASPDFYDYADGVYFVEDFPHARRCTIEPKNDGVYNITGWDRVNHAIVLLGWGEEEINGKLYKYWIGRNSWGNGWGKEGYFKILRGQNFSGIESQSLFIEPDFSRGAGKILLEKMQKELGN
Set-up: species or system P. falciparum D10 trophozoite lysates; single well
CC(C)C(C(=O)N1CCCCCC1)N1C(=O)c2ccccc2C1=O (stereo not drawn) was tested, and the “% Inhibition @ 10 uM” value was -2.69%.
CC(=O)Nc1ccc2c(c1)C1C=CCC1C(c1ccccc1F)N2 (stereo not drawn) was tested, and the “% Inhibition @ 10 uM” value was 3.44%.
O=C(OCCN1CCCCC1)c1sc2cccc(F)c2c1Cl was tested, and the “% Inhibition @ 10 uM” value was -6.42%.
With CC(=O)Nc1ccc(NC(=O)CSc2ncnc3sc4c(c23)CCCC4)cc1 the “% Inhibition @ 10 uM” value was -5.7%.
O=c1c2c3c(sc2n(Cc2cc(=O)n4ccccc4n2)c(=O)n1Cc1ccccc1)CCCC3 was tested, and the “% Inhibition @ 10 uM” value was 2.17%.
For COC(=O)c1cccc(-n2c(C)ccc2-c2ccccc2)c1, the “% Inhibition @ 10 uM” value was -8.57%.
COC(=O)c1ccc(C(=O)OC)s1 was tested, and the “% Inhibition @ 10 uM” value was -5.47%.
In the case of Cc1cc(NC(=O)C(=O)c2c(C)[nH]c3ccccc23)no1, the “% Inhibition @ 10 uM” value was -2.63%.
With COc1ccc(C(=O)Nc2c(C)nn(Cc3ccc(F)cc3)c2C)cc1OC the “% Inhibition @ 10 uM” value was 1.67%.
CCOC(=O)C1CCCCN1Cc1c(F)cccc1F (stereo not drawn) was tested, and the “% Inhibition @ 10 uM” value was -1.75%.
C=CCOc1ccc(C(=O)C2=C(O)C(=O)N(CCCN(C)C)C2c2ccc(C(C)C)cc2)c(C)c1 (stereo not drawn) was tested, and the “% Inhibition @ 10 uM” value was 6.27%.
COc1ccc(Br)cc1C1C2=C(O)CCCC2=NC(C)=C1C(=O)N1CCOCC1 (stereo not drawn) was tested, and the “% Inhibition @ 10 uM” value was 7.93%.
With CCOc1ccc(C2C(C#N)=C(N)Oc3cc(N)ccc32)cc1 (stereo not drawn) the “% Inhibition @ 10 uM” value was 3.54%.
COc1ccc2[nH]c3c(=O)n(CC(=O)NCc4ccco4)c(=S)[nH]c3c2c1 was tested, and the “% Inhibition @ 10 uM” value was 1.15%.
In the case of Cc1cc(C)nc(NC(=O)CCCC(=O)O)c1, the “% Inhibition @ 10 uM” value was -4.77%.
With Cc1ccc(S(=O)(=O)NCCCSC2CCCCC2)cc1 the “% Inhibition @ 10 uM” value was -4.97%.
With CN(C)c1ccc(/C=C/C(=O)c2cccc([N+](=O)[O-])c2)cc1 the “% Inhibition @ 10 uM” value was -0.0217%.
With Cc1cc(N)n(-c2ccc(S(=O)(=O)O)cc2)n1 the “% Inhibition @ 10 uM” value was -2.49%.
Cc1ccc(CNS(=O)(=O)c2csc(C(N)=O)c2)cc1 was tested, and the “% Inhibition @ 10 uM” value was 2.75%.
With C=Cc1ccc(Cn2c(C)c(CNC3CCC(C)CC3)c(C(=O)O)c2C)cc1 (stereo not drawn) the “% Inhibition @ 10 uM” value was 2.99%.
With Cc1cc(O)nc2cc(N(C)C)ccc12 the “% Inhibition @ 10 uM” value was -7.87%.
With COc1ccc(-c2nc(C#N)c(NCc3ccccc3Cl)o2)cc1 the “% Inhibition @ 10 uM” value was -5.1%.
In the case of COc1ccc(C2=C(C)C(N3CCC(Cc4ccccc4)CC3)=NS2(=O)=O)cc1, the “% Inhibition @ 10 uM” value was -4.68%.
With CC1(C)CC2=Nc3nnnn3C(c3ccccc3Cl)C2=C(O)C1 (stereo not drawn) the “% Inhibition @ 10 uM” value was 3.32%.
In the case of CC1CCN(C(=O)C(C(C)C)N2C(=O)c3cccc4cccc(c34)C2=O)CC1 (stereo not drawn), the “% Inhibition @ 10 uM” value was -3.93%.
In the case of CCCNC(=O)CCCN1C(=O)CSc2ncccc21, the “% Inhibition @ 10 uM” value was -2.37%.
CCn1cc(/C=C(\NC(=O)c2ccc(C)cc2)C(=O)NCCCO)c2ccccc21 was tested, and the “% Inhibition @ 10 uM” value was 3.24%.
For O=C1CC(NCCc2ccccc2Cl)C(=O)N1c1ccccc1 (stereo not drawn), the “% Inhibition @ 10 uM” value was -2.32%.
With COc1ccc(C(=O)CC2(O)C(=O)Nc3ccc(Br)cc32)cc1 (stereo not drawn) the “% Inhibition @ 10 uM” value was -5.3%.
In the case of Cc1ccccc1CNC(=O)Cn1ncn2c(cc3cc(F)ccc32)c1=O, the “% Inhibition @ 10 uM” value was 0.0198%.
Cc1c(CNC2CCCC(C)C2C)c(C(=O)O)c(C)n1Cc1ccc(F)cc1 (stereo not drawn) was tested, and the “% Inhibition @ 10 uM” value was 6.02%.
With O=S(=O)(Nc1cccc(C(F)(F)F)c1)c1ccc(Cl)cc1 the “% Inhibition @ 10 uM” value was 1.27%.
With CCN1CCN(Cc2nc3c(c(=O)[nH]c(=O)n3C)n2CCCc2ccccc2)CC1 the “% Inhibition @ 10 uM” value was 15.5%.
COc1ccc(-c2csc3ncn(Cc4ccccc4C)c(=O)c23)cc1 was tested, and the “% Inhibition @ 10 uM” value was -6.2%.
In the case of N#CC1=C(N)Oc2c(O)nc(O)nc2C1c1ccccc1[N+](=O)[O-] (stereo not drawn), the “% Inhibition @ 10 uM” value was 1.7%.
With OCCN1CCN(CC(O)COc2ccccc2)CC1 (stereo not drawn) the “% Inhibition @ 10 uM” value was -3.04%.
CC(C)c1ccc(-c2nc3c(=O)n(C)c(=O)n(C)c3[nH]2)cc1 was tested, and the “% Inhibition @ 10 uM” value was 2.09%.
Cn1c(=O)c2c(nc(S)n2Cc2cccc(C(F)(F)F)c2)n(C)c1=O was tested, and the “% Inhibition @ 10 uM” value was -3.19%.
With O=C(O)c1c(CNC2CCN(Cc3ccccc3)CC2)c2ccccc2n1Cc1ccc(Cl)cc1 the “% Inhibition @ 10 uM” value was 0.277%.
CC1(C)CC(=O)C2=C(C1)OC1=C(C(=O)CC(C)(C)C1)C2c1c[nH]nc1-c1ccccc1 was tested, and the “% Inhibition @ 10 uM” value was 25.5%.
In the case of O=C(/C=C/c1ccccc1)NC(=S)Nc1ccc(S(=O)(=O)Nc2nccs2)cc1, the “% Inhibition @ 10 uM” value was -11.4%.
With CCCN(CCC)S(=O)(=O)c1ccc(NS(C)(=O)=O)cc1 the “% Inhibition @ 10 uM” value was -6.86%.
For CC(=O)Nc1ccc(NC(=O)CCC2CCCC2)cc1, the “% Inhibition @ 10 uM” value was -0.884%.
O=C(c1ccccc1)N1CC(COc2ccccc2)OC(c2cccnc2)O1 (stereo not drawn) was tested, and the “% Inhibition @ 10 uM” value was -5.63%.
With O=C1CCC(=O)N1CCCn1c2ccccc2c2nc3ccccc3nc21 the “% Inhibition @ 10 uM” value was -0.0235%.
For CCOc1ccc(NS(=O)(=O)c2ccc(NC(=O)c3ccccc3C)cc2)cc1, the “% Inhibition @ 10 uM” value was -5.32%.
For Brc1ccc(Sc2nc3ccccc3[nH]2)cc1, the “% Inhibition @ 10 uM” value was -1.96%.
For CC1(c2ccc(F)cc2)NC(=O)NC1=O (stereo not drawn), the “% Inhibition @ 10 uM” value was -1.5%.
CN(Cc1ccccc1)C(=O)COc1ccc(Cl)cc1 was tested, and the “% Inhibition @ 10 uM” value was 1.62%.
With CCOc1ccc(N2C(=O)CC(NCc3ccccc3Cl)C2=O)cc1 (stereo not drawn) the “% Inhibition @ 10 uM” value was -2.99%.
In the case of CCCOc1ccc(/C=C2\C(=O)N(CCOC)C(C)=C2C(=O)OC)cc1OCC, the “% Inhibition @ 10 uM” value was -6.17%.
